One molecule from patent US20260258125A1 can be followed below.

In the experiment the target is antigen of the anti-CEACAM5/6 antibodies on HPAC cells. The experiment in a line: cell-based or functional assay.

B1: PR304294 (antibody, human IgG1, kappa)
heavy: EVQLLESGGGLVQPGGSLRLSCAASGFTFSSYAMSWVRQAPGKGLEWVSAISGTTYNTYYAGSVKGRFTISRDNSKNTLYLQMNSLRAEDTAVYYCAKGISVAGYYYYGMDVWGQGTTVTVSS[letters of human IgG1 constant region omitted]
light: EIVMTQSPATLSVSPGERATLSCRASQSVISNLAWYQQKPGQAPRLLIYGASTRATGIPARFSGSGSGTEFTLTISSLQSEDFAVYYCHQYNNWPLTFGGGTKVEIKRTVAAPSVFIFPPSDEQLKSGTASVVCLLNNFYPREAKVQWKVDNALQSGNSQESVTEQDSKDSTYSLSSTLTLSKADYEKHKVYACEVTHQGLSSPVTKSFNRGEC
B1: the Internalization of pHAb-dye-labelled antibody, MFI (37° C.-4° C.)/DAR turned out to be 130000.
